Consider 42 molecules from article PMC4336329 (PLoS ONE, 2015).

SMILES strings stand for the structures. The whole screen tested about 310,000 compounds, of which about 2,200 (0.71%) showed an effect of 50% or more. The effect is printed as a negative number. The list shows a part of the results.

human ether-à-go-go-related gene (hERG) potassium channel, sequence (Q12809 whole entry, looked up): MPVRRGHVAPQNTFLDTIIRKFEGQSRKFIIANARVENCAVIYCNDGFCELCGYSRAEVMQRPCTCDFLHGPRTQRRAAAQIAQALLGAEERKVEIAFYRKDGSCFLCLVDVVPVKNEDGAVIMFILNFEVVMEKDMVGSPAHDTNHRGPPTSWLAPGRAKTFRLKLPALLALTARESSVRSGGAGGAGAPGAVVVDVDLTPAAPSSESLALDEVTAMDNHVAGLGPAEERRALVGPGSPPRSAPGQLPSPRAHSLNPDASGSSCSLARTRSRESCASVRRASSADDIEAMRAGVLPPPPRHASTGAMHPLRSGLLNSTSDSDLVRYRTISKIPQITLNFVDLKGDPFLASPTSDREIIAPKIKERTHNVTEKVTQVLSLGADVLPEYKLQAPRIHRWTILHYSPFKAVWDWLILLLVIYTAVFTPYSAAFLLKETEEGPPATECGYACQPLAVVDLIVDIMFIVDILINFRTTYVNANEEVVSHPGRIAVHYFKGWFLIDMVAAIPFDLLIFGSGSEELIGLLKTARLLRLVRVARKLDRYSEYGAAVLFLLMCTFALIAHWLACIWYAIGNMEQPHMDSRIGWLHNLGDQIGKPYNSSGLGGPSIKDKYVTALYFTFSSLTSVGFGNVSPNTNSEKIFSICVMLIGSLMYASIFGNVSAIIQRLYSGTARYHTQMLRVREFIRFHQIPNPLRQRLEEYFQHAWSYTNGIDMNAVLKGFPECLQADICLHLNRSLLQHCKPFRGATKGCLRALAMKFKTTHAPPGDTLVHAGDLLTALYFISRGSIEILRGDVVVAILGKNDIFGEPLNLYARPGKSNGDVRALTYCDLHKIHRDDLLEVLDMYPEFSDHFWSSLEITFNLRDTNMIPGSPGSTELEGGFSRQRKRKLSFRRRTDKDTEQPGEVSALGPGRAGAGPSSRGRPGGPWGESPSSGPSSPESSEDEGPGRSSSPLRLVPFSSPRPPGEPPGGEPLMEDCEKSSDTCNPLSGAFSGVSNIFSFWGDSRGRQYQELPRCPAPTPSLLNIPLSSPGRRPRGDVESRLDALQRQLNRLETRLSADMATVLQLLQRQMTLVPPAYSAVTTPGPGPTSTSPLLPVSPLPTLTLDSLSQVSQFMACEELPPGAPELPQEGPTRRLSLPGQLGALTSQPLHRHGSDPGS

This experiment concerns the target human ether-à-go-go-related gene (hERG) potassium channel (human, UniProt Q12809). Briefly: primary screen, population patch clamp on CHO cells stably expressing hERG.
Turning to `CCOC(=O)c1ccc(-n2c(N)c(C(=O)NCC3CCCO3)sc2=S)cc1` (stereo not drawn), the “hERG current change (%, negative = inhibition) at 1uM” value is 2.25%.

For `C=CCN1C(=O)C(Cc2cccc(Cl)c2)S/C1=N/N=C/c1ccco1` (stereo not drawn), the “hERG current change (%, negative = inhibition) at 1uM” value is on record as 1.59%.

Consider `COc1ccccc1NC(=O)c1cc(N2C(=O)C3C4CCC(C4)C3C2=O)ccc1Cl` (stereo not drawn), for which the “hERG current change (%, negative = inhibition) at 1uM” value is listed as -6.06%.

For the molecule `COc1ccc(NC(=O)C(c2ccc(C)cc2)N(C)C(=O)CC2NC(=O)NC2=O)cc1` (stereo not drawn), the “hERG current change (%, negative = inhibition) at 1uM” value is -3.76%.

As to `O=C(NCc1ccc(F)cc1)C1CCCN1C(=O)NCc1ccccc1` (stereo not drawn), the “hERG current change (%, negative = inhibition) at 1uM” value was -5.07%.

For `O=C(CN1CCOCC1)N/N=C/c1ccc(-c2ccc(C(=O)O)cc2)o1`, the “hERG current change (%, negative = inhibition) at 1uM” value worked out at 2.25%.

On to `O=C(NCc1cccnc1)c1cccc(OC2CCN(Cc3ccc(CO)o3)CC2)c1`, for which the “hERG current change (%, negative = inhibition) at 1uM” value is 12.9%.

Consider `Cc1ccc(S(=O)(=O)N2CCN(C(=O)C3CCN(C(=O)c4ccccc4C)CC3)CC2)cc1C`, for which the “hERG current change (%, negative = inhibition) at 1uM” value is recorded as -0.544%.

`O=C(c1cccc(S(=O)(=O)N2CCOCC2)c1)N(Cc1ccco1)Cc1cccs1`: the “hERG current change (%, negative = inhibition) at 1uM” value is -6.4%.

As to `C=C(C(=O)Oc1c(C(C)(C)C)cccc1C(C)(C)C)c1ccccc1`, the “hERG current change (%, negative = inhibition) at 1uM” value was 9.92%.

Consider `CCN(CC)c1ccc(N=Cc2c(O)n(CCC3=CCCCC3)c(=O)[nH]c2=O)cc1`, for which the “hERG current change (%, negative = inhibition) at 1uM” value stood at 20.8%.

Turning to `Cc1ccc(S(=O)(=O)NC(=O)Nc2cccc([N+](=O)[O-])c2)cc1`, the “hERG current change (%, negative = inhibition) at 1uM” value is given as 7.82%.

For `O=C(NCc1ccccn1)c1cc(-c2ccc(-c3ccccc3)cc2)nc2ccccc12`, the “hERG current change (%, negative = inhibition) at 1uM” value amounted to 4.58%.

As to `Cc1cccc(N(Cc2cc3ccccc3[nH]c2=O)S(=O)(=O)c2ccccc2)c1`, the “hERG current change (%, negative = inhibition) at 1uM” value came to 5.15%.

For `O=C(Cn1cnc(S(=O)(=O)N2CCCCC2)c1)N1CCN(c2ccc([N+](=O)[O-])cc2)CC1`, the “hERG current change (%, negative = inhibition) at 1uM” value was -5.79%.

For the molecule `CN(C)C(C)(C)/C=C/C(O)(c1ccccc1)c1ccccc1`, the “hERG current change (%, negative = inhibition) at 1uM” value is listed as 4.79%.

Turning to `Cc1ccc(C)c(OC(=O)c2ccncc2)c1`, the “hERG current change (%, negative = inhibition) at 1uM” value worked out at 7.64%.

`CCCn1c(SCC(=O)N2c3ccccc3Sc3ccccc32)nc2c1c(=O)n(C)c(=O)n2C`: the “hERG current change (%, negative = inhibition) at 1uM” value is on record as -1.96%.

Take `O=C(C1CCCN(S(=O)(=O)c2ccccc2)C1)N1CCCCC1` (stereo not drawn): the “hERG current change (%, negative = inhibition) at 1uM” value amounted to 9.2%.

Take `CCCN1CCC(NC(=O)Nc2ccc([N+](=O)[O-])cc2)CC1`: the “hERG current change (%, negative = inhibition) at 1uM” value was -10.2%.

On to `Clc1ccc(-c2cc(CSc3cccc(Cl)c3)on2)cc1`, for which the “hERG current change (%, negative = inhibition) at 1uM” value is given as 1.62%.

As for `C[C@H](NC(=O)OC(C)(C)C)c1nnc(SCC(=O)c2ccc(Cl)cc2)o1`, the “hERG current change (%, negative = inhibition) at 1uM” value was -16.2%.

As to `Cc1nc(N2CCCC2)c2nnn(Cc3ccccc3Cl)c2n1`, the “hERG current change (%, negative = inhibition) at 1uM” value came to 7.5%.

As to `Cc1cc(=O)[nH]c(SCc2nc3ncccn3c2Br)n1`, the “hERG current change (%, negative = inhibition) at 1uM” value is given as 13.5%.

Regarding `CC(C)Cc1nc(SCC(=O)NCC2CCCO2)c2c(=O)n(C)c(=O)n(C)c2n1` (stereo not drawn), the “hERG current change (%, negative = inhibition) at 1uM” value came to 6.6%.

Consider `O=C(NCC1COc2ccccc2O1)C1CCC(CNc2c(N3CCCCC3)c(=O)c2=O)CC1` (stereo not drawn), for which the “hERG current change (%, negative = inhibition) at 1uM” value came to 0.783%.

Regarding `c1ccc(C2(CNc3ccccn3)CCCC2)cc1`, the “hERG current change (%, negative = inhibition) at 1uM” value is -11%.

`Cc1ccc(SC[C@H](Cc2ccccc2)N2CCN(CCc3ccccc3)CCC2=O)cc1`: the “hERG current change (%, negative = inhibition) at 1uM” value is 8.27%.

Turning to `Cc1ccc(N2C(=O)NC(NC(=O)C(C)(C)C)(C(F)(F)F)C2=O)cc1` (stereo not drawn), the “hERG current change (%, negative = inhibition) at 1uM” value was 6.67%.

Take `CCC(=O)Nc1cc2c(cc1C(C)=O)OCCO2`: the “hERG current change (%, negative = inhibition) at 1uM” value is on record as 15.3%.

As to `O=C(c1cc2c(=O)n3ccccc3nc2s1)N1CCN(c2cccc(Cl)c2)CC1`, the “hERG current change (%, negative = inhibition) at 1uM” value is 10.4%.

Turning to `COc1ccc(NS(=O)(=O)c2cccc(NC(=O)C34CCC(CC3)C4)c2)cc1`, the “hERG current change (%, negative = inhibition) at 1uM” value is on record as 3.23%.

For the molecule `CC(=O)Nc1nnc(CCN2CCCCC2)s1`, the “hERG current change (%, negative = inhibition) at 1uM” value is -0.872%.

As for `COC(=O)c1sc(=S)n(-c2cccc(Cl)c2)c1N`, the “hERG current change (%, negative = inhibition) at 1uM” value turned out to be 2.67%.

Turning to `CCOC(=O)CNC(=S)N(Cc1ccccc1F)C1CCCCC1`, the “hERG current change (%, negative = inhibition) at 1uM” value stood at 5.28%.

Turning to `CCOc1ccccc1N1CC(C(=O)Nc2cc(Cl)ccc2-n2cncn2)CC1=O` (stereo not drawn), the “hERG current change (%, negative = inhibition) at 1uM” value is listed as 7.45%.

As for `Cn1ccnc1SCC(=O)c1cc2ccccc2o1`, the “hERG current change (%, negative = inhibition) at 1uM” value came to 7.83%.

`CCOC(=O)N1CCN(C(=O)c2ccccc2NC(=O)c2ccc(OC)cc2)CC1`: the “hERG current change (%, negative = inhibition) at 1uM” value is 9.15%.

Regarding `COc1ccc(NC(=O)c2cccc(N3C(=O)C4CC=C(C)CC4C3=O)c2)c(OC)c1` (stereo not drawn), the “hERG current change (%, negative = inhibition) at 1uM” value is on record as 11.7%.

As for `CC(OC(=O)CCSc1ccccc1)C(=O)Nc1ccc(S(N)(=O)=O)cc1` (stereo not drawn), the “hERG current change (%, negative = inhibition) at 1uM” value is recorded as 4.55%.

In the case of `CC1(C)CC(c2nc(-c3ccc(Br)cc3)cs2)CCS1.Cl` (stereo not drawn), the “hERG current change (%, negative = inhibition) at 1uM” value came out at 8.62%.

On to `Cc1sc2ncnc(N3CCC(C(=O)NNC(=O)c4ccc(Cl)cc4)CC3)c2c1C`, for which the “hERG current change (%, negative = inhibition) at 1uM” value is listed as 14.9%.
